From US20040166530A1 (BAYLOR COLLEGE OF MEDICINE, published 2004) come the findings set out here.

The target in the test is T1, Myc-tagged Cdc53 (Cdc53^M) (S. cerevisiae, UniProt Q12018 1-815).
T1 construct: Expressed from baculovirus in insect cells; not shown: N-terminal Myc tag
T1 sequence (looked up): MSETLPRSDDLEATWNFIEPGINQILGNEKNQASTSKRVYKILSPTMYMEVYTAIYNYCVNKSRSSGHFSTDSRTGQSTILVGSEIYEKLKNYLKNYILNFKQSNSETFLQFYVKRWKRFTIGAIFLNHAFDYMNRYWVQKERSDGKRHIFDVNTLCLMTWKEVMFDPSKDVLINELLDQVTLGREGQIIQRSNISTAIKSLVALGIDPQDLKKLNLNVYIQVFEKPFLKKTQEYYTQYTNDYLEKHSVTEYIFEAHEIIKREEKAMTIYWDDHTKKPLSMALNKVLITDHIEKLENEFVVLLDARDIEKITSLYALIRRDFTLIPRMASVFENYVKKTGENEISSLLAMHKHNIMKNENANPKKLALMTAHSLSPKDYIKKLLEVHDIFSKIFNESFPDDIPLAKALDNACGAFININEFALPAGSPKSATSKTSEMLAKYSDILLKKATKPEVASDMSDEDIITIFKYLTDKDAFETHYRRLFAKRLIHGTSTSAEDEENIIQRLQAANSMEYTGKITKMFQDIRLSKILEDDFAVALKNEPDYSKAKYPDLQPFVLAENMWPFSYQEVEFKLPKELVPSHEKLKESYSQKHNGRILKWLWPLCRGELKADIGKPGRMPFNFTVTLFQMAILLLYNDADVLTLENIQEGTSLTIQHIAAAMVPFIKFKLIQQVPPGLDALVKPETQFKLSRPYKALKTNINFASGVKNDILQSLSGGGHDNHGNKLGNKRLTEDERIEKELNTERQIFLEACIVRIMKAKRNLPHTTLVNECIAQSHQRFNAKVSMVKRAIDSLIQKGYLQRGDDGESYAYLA
As to the kind of experiment: anti-Myc immunoprecipitation from co-infected insect cells, immunoblot (FIG. 1A). The text has this:
Insect cells were co-infected with various combinations of baculoviruses expressing Myc-tagged Cdc53 (Cdc53^M), Cdc34, Cdc4, and Skp1. Anti-Myc immune complexes from lysates of these infected cells were immunoblotted to identify associated proteins (See, FIG. 1A). […] Thus, one function of Skp1 is to facilitate association of Cdc53 with Cdc4. […] Furthermore, it appeared that Cdc53 can simultaneously associate with both Cdc34 and Skp1, as the association of Gst-Skp1 with Cdc34 is enhanced in the presence of Cdc53^M (See, FIG. 1C).
For recombinant protein expression and assembly of complexes, 4×10⁵ insect cells (Hi5, Invitrogen) were infected with the indicated virus combinations for 40 hours. These combinations included baculoviruses expressing Myc-tagged Cdc53 (Cdc53^M), Cdc34, Cdc4, and Skp1. Cells were then harvested and disrupted in lysis buffer (50 mM Tris-HCl (pH 7.5), 150 mM NaCl, 0.5% Nonidet P40, 10 mM NaF, 10 mM β-glycerol phosphate, 1 mM PMSF, and 5 μg/ml each leupeptin, antipain, and aprotinin). For isolation of protein complexes, typically about 3 ml of lysis buffer was used per 0.5×10⁸ cells.
To examine the assembly of recombinant yeast proteins, 0.4 ml lysate were typically derived from 2×10⁶ cells. […]
(Immunoblotting shows a protein as a band on a membrane.)

B1: Skp1 (other)
chain: not shown
notes: Untagged, expressed from baculovirus in insect cells; also called yeast Skp1
For the molecule B1, the binding result is listed as “binds”.
